# Some of the results follow. At the low end of the ranking the order means little.
# Biological target: SIX1-Q177R homeodomain (UniProt Q15475)
# Assay: universal protein binding microarray
# Settings: Universal all-10-mer PBM (8x60K, AMADID 030236), 300 nM GST-tagged protein, Alexa Fluor 488 anti-GST; buffer, salt, pH and temperature not stated; high values mean tight binding; most listed sequences are background and not binding sites; double strand, one strand shown
row,Sequence,binding signal [E-score]
1,CTCGTAAG,-0.00583
2,ACGCCTGA,0.0293
3,GTGAGTCA,0.0222
4,ATCCCGCG,0.0878
5,CACATCCC,-0.00158
6,ACCCACTG,0.181
7,GGGGTGGA,0.159
8,ATTATGAC,0.0242
9,AGCAGTTA,-0.124
10,ATCAGTAC,0.0475
11,ATTGATTA,-0.033
12,AAACATCT,-0.367
13,AAATGACT,-0.176
14,ATATAAAG,-0.176
15,ATGAACCA,-0.0367
16,AACGTCGC,-0.241
17,GAAGCCCA,-0.269
18,ATGTTAAA,-0.202
19,AGCCTTTG,-0.115
20,TTCGTAAA,-0.187
21,ATATGGTG,0.245
22,ATAACATA,-0.203
23,AAATACCG,-0.051
24,AACGATGG,-0.0417
25,CCTGGAAA,-0.0542

row,Sequence,binding signal [E-score]
1,ATCGGGAG,-0.0418
2,TATCAATA,-0.0325
3,ATCAGTGC,-0.077
4,GCGCAGAC,-0.156
5,CCGAGGCC,-0.199
6,CATCCGGC,-0.0942
7,GTAACTAC,-0.0229
8,ATCCAGAG,0.0774
9,GTGACAGA,-0.157
10,GTGCACTA,0.126
11,ACAATAAG,0.115
12,CAGCGAGA,0.047
13,TATAGTAA,-0.0857
14,TGGTGACA,0.271
15,CAGCTTGG,-0.0981
16,GCTCTCAC,-0.221
17,AACCCTTA,-0.00294
18,ACAGACTG,-0.167
19,AAAATGAA,-0.14
20,AGATTTAT,-0.145
21,GACCGCTC,-0.297
22,CTACCGCC,-0.00202
23,AAAGCAAA,-0.279
24,CAACGGGC,-0.305
25,AAGGGTGA,-0.0417

row,Sequence,binding signal [E-score]
1,TTAAGTAA,0.0624
2,CATACAGC,-0.0833
3,AATTGTTA,-0.263
4,GGTCGTAC,0.224
5,CGTGGCAG,-0.175
6,ATAGCTGC,-0.193
7,GAAATAAA,-0.128
8,ATGCTACA,0.0978
9,TAAGCTAA,-0.291
10,ACATGTGG,-0.17
11,GCTCTACC,0.0948
12,CAATAGAC,-0.201
13,CGACGTAA,-0.104
14,AAAAGGAC,-0.139
15,GATGCGAA,-0.187
16,CTACGTTC,-0.203
17,ACGGTCTG,0.0327
18,AACGTCTT,-0.237
19,ATCTTAAA,-0.17
20,TAGTGAGA,0.154
21,ATTGTGGA,0.0251
22,GAAGCTCC,-0.285
23,ATTAAAAA,-0.29
24,ATCTGGTC,-0.0419
25,CAACACCC,0.456

row,Sequence,binding signal [E-score]
1,AAAAGGCT,-0.306
2,GAATATTA,-0.0116
3,CTTGACGC,-0.0465
4,CTGGAGGC,-0.106
5,CATAAACA,0.0837
6,ATATACTA,0.0556
7,AAATCTCA,-0.157
8,ACCTGGAA,0.111
9,GAGGTCTA,0.00402
10,CCTGAATC,-0.125
11,ATTGTGTG,0.0178
12,AGTCAAAT,-0.189
13,CCGAGGAA,0.131
14,CCTGACTC,0.115
15,AGGCCAAG,-0.163
16,CAGGGCCG,-0.0709
17,AGCATAAA,-0.0234
18,ATGTCCGG,-0.23
19,GTGCCCGA,0.128
20,ATCCGCGG,0.0619
21,AGCTATTA,-0.248
22,ATTGGACC,-0.0294
23,GGAGTGAC,0.139
24,CCCTTGAG,0.0318
25,CAACCGTA,-0.357

row,Sequence,binding signal [E-score]
1,AACATACG,-0.188
2,GCCAATCC,-0.121
3,CCTTAAGC,-0.137
4,GCCCTGAA,-0.185
5,GGACTAAC,-0.0725
6,AAAATAAA,-0.169
7,GCATTGCA,0.0131
8,TCGGTTCA,0.0108
9,ATAGTCGC,-0.0145
10,GCGGGGGA,0.157
11,CTAGTCTC,-0.213
12,AGGTAATG,-0.0501
13,GGGTGCAA,0.261
14,GCACGACC,0.255
15,ACAACAAT,0.0987
16,CCACGCAC,0.0821
17,CTATAGAC,-0.0286
18,AACGCCGG,0.104
19,CATCGCGG,-0.194
20,GTACTAGA,0.155
21,TATTCTCA,-0.0638
22,CGTAGCGA,-0.0924
23,CTCAGATA,-0.314
24,GCGGGCCC,-0.0174
25,GACTGTCA,-0.105

row,Sequence,binding signal [E-score]
1,GATTCTAC,0.00138
2,ACTATCTC,-0.0775
3,TCTACCCA,0.0236
4,ACCATACC,0.0352
5,ATACGAGC,0.0115
6,ACTTACAG,-0.0163
7,CTGCATCA,-0.211
8,GTGTCGCA,0.442
9,GACCCCAC,0.218
10,ATACCGCC,0.141
11,CTCTTGCC,-0.129
12,GCGACGAC,-0.144
13,CGCAGTCC,-0.173
14,AGATAAAA,0.0966
15,AGTCCGTA,-0.151
16,GCATCGCC,-0.122
17,AGATTAGC,-0.297
18,CAACGAGA,-0.177
19,ACACGCAC,0.405
20,GGCGCACA,0.0588
21,AGTGGTAC,-0.00249
22,CCGCCCGA,0.174
23,ATCTATGG,-0.271
24,CTAATGTA,-0.111
25,GCACTGGA,-0.108

row,Sequence,binding signal [E-score]
1,ATAGGACA,0.0691
2,ACTGGGGC,-0.203
3,AGAGTGCC,-0.242
4,AGTAGGGC,0.0368
5,CACCCTGG,0.315
6,CACACTCA,0.21
7,CATCAATA,-0.0687
8,ACCACGGC,-0.0946
9,CTCCGAGC,0.0411
10,ATCTATTC,-0.0709
11,AGTCTGGC,-0.192
12,ACACATGA,0.132
13,GTCTAGGA,-0.114
14,AGGCGCAC,-0.0554
15,GAGCTCCC,-0.129
16,GGTTAAAA,0.0283
17,ATAGATGA,-0.0212
18,AGGTGTAT,0.441
19,AGCCCTCC,0.00655
20,AGTTCGAG,0.0214
21,GGCAAAGA,-0.291
22,GCGGATAA,0.162
23,CCCGGACG,0.165
24,CGAAGGTA,0.0165
25,ATAGCCAC,-0.202

row,Sequence,binding signal [E-score]
1,CCTTAAAC,0.0384
2,CTGCGCGC,0.0164
3,ACGTCTGC,-0.115
4,AAAGTGAT,-0.0242
5,CCCCATGC,0.201
6,GTAGTCAC,0.0921
7,GACTTCGA,-0.311
8,AGGGTAGA,0.0482
9,CCCACTTA,-0.0803
10,AGACACTG,0.341
11,GTATGCAC,0.117
12,CAGCCTTC,-0.332
13,CCGCGCAC,0.149
14,AGATCCAT,-0.198
15,CGGGTACG,0.182
16,ATATCATC,-0.134
17,AAGGATTA,-0.00536
18,AGCCCGGA,0.00594
19,CACGTGCC,0.225
20,AAATACAT,-0.17
21,ATATCATG,-0.132
22,AAAGTAAC,-0.172
23,CGCTAAGA,0.111
24,ATATCAGC,-0.182
25,TGTGCGAA,-0.0466

row,Sequence,binding signal [E-score]
1,GGATCCCA,0.235
2,AACAGGCA,-0.178
3,CTGCCGTA,-0.126
4,GGGGGACA,0.116
5,CCGAGAGC,-0.109
6,TACACCAA,0.475
7,ACGCTGAG,-0.0156
8,AGGCATAC,-0.0952
9,CTGTCTGC,-0.0663
10,AACTTGGG,-0.204
11,TTCGAAAA,-0.0447
12,CAGTCGTC,-0.309
13,GAGTCTGC,-0.119
14,TAATGCTA,-0.119
15,GTGGTATA,0.153
16,GTACGAGA,-0.135
17,CCCATAGC,-0.119
18,GAGGACGA,0.0238
19,CATAGTGC,-0.134
20,AGCTAGGA,-0.212
21,CTGAGATA,-0.0701
22,CGTATTCC,0.0818
23,AGAATTCT,-0.0421
24,GGCGGCCC,-0.215
25,ACGTCGCT,-0.158

row,Sequence,binding signal [E-score]
1,ATTCATGC,0.00265
2,CTACGGGA,0.122
3,CCGGCCGG,0.0511
4,CTCTCATA,-0.0324
5,AACCCTAA,0.0778
6,CAGCCGAG,-0.147
7,CCGTCAAA,-0.128
8,CGATGCAG,-0.054
9,ATGTTCGC,-0.213
10,ACAGTTAC,-0.0385
11,CCCGTCAG,0.072
12,CCCAGTCG,-0.117
13,AGATAGGC,-0.0723
14,CGTACTGA,-0.0164
15,ATTAAATA,-0.0373
16,ATATAAAT,-0.0705
17,TACACCTA,0.47
18,CGCGCCTC,0.0623
19,CCGCGTGC,0.0465
20,GAGGCCAA,-0.117
21,ATACAGCA,-0.0433
22,CATACAAC,-0.0671
23,AGAACGCC,-0.0645
24,GATTGTCC,-0.109
25,CGCACTGA,-0.0399

row,Sequence,binding signal [E-score]
1,AGAAATTA,-0.183
2,GGTCTCCA,-0.135
3,CTACCAGC,-0.0932
4,GCATTTCC,-0.141
5,AGGCGTAT,-0.0158
6,GGAGGATA,0.0528
7,CGGTATCC,0.325
8,AGTGTCTA,0.372
9,CCATTATA,-0.0138
10,CTGGTAAC,0.0552
11,GGTCGACC,0.136
12,CCACTTAG,-0.0567
13,ACGCATTA,-0.056
14,GAGCGCGC,-0.233
15,AATAGCGA,0.12
16,CCTCGATC,0.0664
17,GCAGAGAC,-0.201
18,GAGTGCCA,-0.0848
19,CAAAGGGC,-0.129
20,AGGAAAGC,-0.19
21,ACTTGGAT,0.116
22,CAACCATG,-0.015
23,AATTTAAT,-0.127
24,AAGGTAAA,-0.0807
25,GCAAAAAC,-0.0384

row,Sequence,binding signal [E-score]
1,AGGGAAGC,-0.276
2,CCCGGCGG,0.127
3,CTTCTGGA,-0.103
4,CGGAGCAG,0.0446
5,CTAAACAG,-0.251
6,GAGTCGCA,0.0152
7,CCGAACCG,0.175
8,CTGTAGGA,0.081
9,CGAGTGCG,0.00816
10,ATTACTAA,-0.145
11,AAAGAAAT,-0.215
12,CTTCCAGC,-0.262
13,GAAATGAA,-0.219
14,CATAGACA,0.0872
15,CTGAGCGA,-0.0334
16,GAAGATGC,-0.159
17,TACAGCAA,-0.0509
18,CCTGCCGC,-0.152
19,ATAGGCGA,-0.201
20,ACCAAGAG,0.213
21,ATCCAGTC,0.118
22,GGGAGGAA,-0.139
23,CCACTGAG,0.131
24,GAGTCGAA,0.0854
25,CGGTCCAC,-0.218

row,Sequence,binding signal [E-score]
1,ACGCCTCA,0.165
2,CAACTGTG,-0.0257
3,GCACCTCC,0.102
4,CTCCGCCA,-0.146
5,CATAAGCG,-0.0888
6,CTCTCGGA,-0.114
7,CTTGTATA,-0.0877
8,CTCAACAA,0.09
9,AGGCTTAG,-0.151
10,ATTCATGA,-0.0959
11,ATCAGCCC,0.0123
12,CTGTCACA,0.0927
13,GAGTTCGA,0.0107
14,ATACTCTA,0.00234
15,ATTTGAGC,-0.0724
16,CTAACCGA,-0.0115
17,AGCCCCGG,0.0308
18,ACAGCTCC,-0.122
19,CGCAATAA,-0.00154
20,ATATCACG,-0.0469
21,ACTGTTCT,-0.0181
22,AGGAGAGA,-0.0347
23,GTTGTTCA,-0.0874
24,CTGTCGAA,-0.107
25,TACGTTCA,-0.117

row,Sequence,binding signal [E-score]
1,ACCCCACT,0.207
2,CTACCGAG,-0.00206
3,GTTGGGGA,0.218
4,CCCGGTAC,0.22
5,ATAGCCGG,-0.0319
6,GGTCGGGA,0.159
7,GCATCCCC,-0.178
8,CAACCTAA,-0.147
9,AGTCACAA,0.0766
10,CTAAAACC,0.0354
11,AGAACACC,0.459
12,CCATAGCC,0.0381
13,ACACCGGT,0.481
14,CCATGCTC,-0.0521
15,ACGGATTC,-0.00227
16,GAATTGCA,-0.214
17,CCATCATC,-0.114
18,ACCAACTA,0.115
19,ATCTGTTC,-0.248

# Source: PMC10668032
